# Laboratory results from PMC4336329 (PLoS ONE, 2015).
# The whole screen tested about 310,000 compounds, of which about 2,200 (0.71%) showed an effect of 50% or more. The effect is printed as a negative number. Some of the results follow.
# Target: human ether-à-go-go-related gene (hERG) potassium channel (human, UniProt Q12809)
# Assay: primary screen, population patch clamp on CHO cells stably expressing hERG
# Sequence of human ether-à-go-go-related gene (hERG) potassium channel (Q12809 whole entry, looked up): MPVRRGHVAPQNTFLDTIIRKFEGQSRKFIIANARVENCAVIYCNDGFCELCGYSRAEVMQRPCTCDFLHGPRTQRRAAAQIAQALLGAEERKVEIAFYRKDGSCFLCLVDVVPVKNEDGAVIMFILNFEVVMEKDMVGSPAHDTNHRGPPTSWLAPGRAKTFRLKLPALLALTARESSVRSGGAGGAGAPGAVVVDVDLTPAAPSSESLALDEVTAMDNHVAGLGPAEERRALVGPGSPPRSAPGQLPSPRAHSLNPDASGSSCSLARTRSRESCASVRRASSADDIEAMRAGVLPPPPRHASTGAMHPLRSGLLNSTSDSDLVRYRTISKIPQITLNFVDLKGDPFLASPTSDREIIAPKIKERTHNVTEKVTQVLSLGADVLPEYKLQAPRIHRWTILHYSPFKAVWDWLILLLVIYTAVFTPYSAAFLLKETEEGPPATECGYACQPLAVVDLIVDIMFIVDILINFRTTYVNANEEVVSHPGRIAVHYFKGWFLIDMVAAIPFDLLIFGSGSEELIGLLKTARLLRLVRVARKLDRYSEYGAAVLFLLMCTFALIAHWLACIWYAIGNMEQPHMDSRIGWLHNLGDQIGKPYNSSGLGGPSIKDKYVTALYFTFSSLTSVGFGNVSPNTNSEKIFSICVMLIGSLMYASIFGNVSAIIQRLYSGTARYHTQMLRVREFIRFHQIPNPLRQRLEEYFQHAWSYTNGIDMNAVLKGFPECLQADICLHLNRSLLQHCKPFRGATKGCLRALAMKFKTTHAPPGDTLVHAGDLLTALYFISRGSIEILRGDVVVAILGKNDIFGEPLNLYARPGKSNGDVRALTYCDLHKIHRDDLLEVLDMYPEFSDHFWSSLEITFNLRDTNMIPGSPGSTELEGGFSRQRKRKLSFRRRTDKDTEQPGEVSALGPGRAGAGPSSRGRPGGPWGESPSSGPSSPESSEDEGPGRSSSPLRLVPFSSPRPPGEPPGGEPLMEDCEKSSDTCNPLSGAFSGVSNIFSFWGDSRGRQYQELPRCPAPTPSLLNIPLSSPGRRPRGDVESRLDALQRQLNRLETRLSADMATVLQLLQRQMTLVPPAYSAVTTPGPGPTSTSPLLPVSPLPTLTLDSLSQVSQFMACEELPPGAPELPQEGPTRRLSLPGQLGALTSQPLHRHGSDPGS
row,SMILES,"hERG current change (%, negative = inhibition) at 1uM"
1,COCCNC(=O)CN(C(=O)Cn1nnc2ccccc21)c1cccc(C)c1C,4.11%
2,CCCn1nc(C(=O)Nc2nnc(CC)s2)c2ccccc2c1=O,5.44%
3,CSCCC(NS(=O)(=O)c1ccccc1)C(=O)OC(C)C(=O)Nc1ccc(Cl)cn1 (stereo not shown),7.33%
4,Cc1cc2cc(CNC(=O)c3cccs3)ccc2[nH]1,13.6%
5,Cc1ccccc1NC(=O)c1cc(S(=O)(=O)c2ccccc2)ccc1Cl,8.97%
6,Cc1c(C(=O)NC(c2ccccn2)C(F)(F)F)oc2c(F)cccc12 (stereo not shown),12.1%
7,CCC(C)[C@H](NC(=O)N1CC(=O)Nc2ccccc21)C(=O)N1CCC(C(=O)O)CC1 (stereo partly shown),15.2%
8,Cc1cc(Cl)ccc1OCC(=O)OCC(=O)Nc1cccnc1Cl,4.73%
9,CCC(=O)Nc1cccc(C2=NOC3(C2)C[C@@H](C(N)=O)N(C(=O)CC(c2ccccc2)c2ccccc2)C3)c1 (stereo partly shown),4.24%
10,Cc1ccc(C(=O)c2cc([N+](=O)[O-])ccc2N2CCCCC2)cc1,5.9%
11,O=C(NC1CCCCC1)C1CC(=O)N(Cc2ccccc2)C1 (stereo not shown),13.3%
12,COc1ccc(C(=O)Nc2ccc(NC(=O)c3ccccc3F)cn2)cc1,12.9%
13,O=C(NNC(=S)Nc1ccccc1Cl)c1ccccc1,4.02%
14,COc1ccc(NC(=O)c2ccc3c(c2)OCO3)cc1[N+](=O)[O-],13%
15,CN(C)c1ccc(CNn2cnnc2SCc2ccccc2F)cc1,-3.75%
16,CCC(C)C(=O)Nc1cccc(SC)c1 (stereo not shown),13.6%
17,O=C(c1nc2ccccn2c1CNCC1OCCc2ccccc21)N1CCOCC1 (stereo not shown),10.1%
18,CCN(CC(=O)NCc1ccc(F)cc1)C(=O)c1ccc(Cl)cc1,-2.66%
19,COc1ccc(-c2noc(CN(C(=O)c3c(-c4ccccc4Cl)noc3C)C(C)C)n2)cc1,10.8%
20,CC1(C)Cc2c(cnn2-c2ccccc2)-c2c1c1ccccc1n2CC(O)CCl (stereo not shown),4.97%
21,Cc1cc(C(=O)Nc2ccccc2C(F)(F)F)no1,16.3%
22,CC(=O)NC(CCS(C)(=O)=O)C(=O)N1CCc2ccccc21 (stereo not shown),4.59%

row,SMILES,"hERG current change (%, negative = inhibition) at 1uM"
1,N#CCCN1CCN(S(=O)(=O)c2ccc(S(=O)(=O)NCC3CCCO3)cc2)CC1 (stereo not shown),5.57%
2,O=C(NNC(=O)c1ccc2c(=O)n3c(nc2c1)CCC3)c1ccc(Cl)cc1,6.5%
3,Cc1c(NC(=O)CSc2ccc3c(c2)OCCO3)c(=O)n(-c2ccccc2)n1C,4.74%
4,COc1cc(/C=C(\C#N)C(=O)NCC2CCCO2)ccc1OCC(N)=O (stereo not shown),20.8%
5,O=C(O)c1ccc2oc(=O)c(S(=O)(=O)c3ccc(F)cc3)cc2c1,17.4%
6,CCCCOc1ccc(C2C(C(=O)c3cccs3)=C(O)C(=O)N2CCN2CCOCC2)cc1 (stereo not shown),17.2%
7,O=C(O)COCC(=O)Nc1ccccc1-c1ccccc1,25%
8,COc1cc2c(cc1OC)CN(C(=O)Nc1ccccc1Cl)CC2,13.4%
9,Cc1cccc2cc(C3CC(c4cccs4)=NN3S(C)(=O)=O)c(Cl)nc12 (stereo not shown),9.38%
10,O=C(Cn1cc(C(=O)c2cccs2)c2ccccc21)NCc1ccc2c(c1)OCO2,1.12%
11,O=S(=O)(c1ccccc1)N1CCN=C1SCc1cccnc1,7.15%
12,CC(=O)c1cccc(NC(=S)NC2CCCCC2)c1,-8.44%
13,CC(NS(=O)(=O)c1ccc(Br)cc1)C(=O)Nc1nc2ccccc2[nH]1 (stereo not shown),0.413%
14,CCOC(=O)C1=C(O)CSC1=Nc1cccc(Cl)c1,11%
15,Cc1ccc(NCC(=O)N=Nc2c(O)[nH]c3ccc([N+](=O)[O-])cc23)cc1,3.12%
16,CCOc1cc(C2C(C(=O)c3ccc(C)cc3)=C(C(=O)OC)Nc3nnnn32)ccc1O (stereo not shown),9.37%
17,Cc1ccc(N2C(=O)/C(=C/c3cccnc3)SC2=S)cc1,16.7%
18,COc1cc(C(=O)OCC(=O)N2CCCC2)cc(OC)c1OC,14.2%
19,COc1ccc(-c2nn(-c3ccccc3)cc2C(=O)n2nnc3ccccc32)cc1,3.22%
20,Br.O=C1c2ccccc2C(=O)N1c1cccc(-c2csc(Nc3ccc4c(c3)OCO4)n2)c1,-1.77%
21,NC(=S)Nc1nccc(-c2cccs2)n1,11.7%
22,COc1ccc(/C=C2\SC(=S)N(CC(=O)N(C)C3CCS(=O)(=O)C3)C2=O)cc1 (stereo not shown),8.77%

row,SMILES,"hERG current change (%, negative = inhibition) at 1uM"
1,CS(=O)(=O)N1CCN(c2ccc(NC(=S)NC(=O)c3cccs3)cc2)CC1,14%
2,CCOC(=O)c1c(NC(=O)C(C)NCc2ccco2)sc2c1CCC(C)C2.O=C(O)C(=O)O (stereo not shown),0.556%
3,O=C(NCc1nnc(SCC(=O)N2CCCC2)o1)c1cccc(C(F)(F)F)c1,12%
4,COc1cccc(-c2nc3ccc(N4CCN(C)CC4)cc3[nH]2)c1,1.18%
5,CC(C)CNC(=O)C1CC(=O)OC12CCCCC2 (stereo not shown),8.29%
6,CCCCn1nc(C(=O)Nc2cccc(C(=O)NC3CC3)c2)c2ccccc2c1=O,-41%
7,Cc1cccc(NC(=O)CSCC(=O)N(C)CC(=O)Nc2cccc(F)c2)c1,16.2%
8,COc1ccc(C2(c3ccc(OC)cc3)NC(=O)N(CC(=O)N3CCOCC3)C2=O)cc1,8.7%
9,Cc1ccc(OCC(=O)NNC(=S)NC(=O)C2CC2)c(C)c1,15.9%
10,Cc1ccccc1CNC(=O)Nc1ccc(Cl)cc1,13.4%
11,Cc1ccc(C(=O)NC(Cc2c[nH]c3ccccc23)C(=O)O)o1 (stereo not shown),8.54%
12,O=C(Nc1nccs1)c1ccc(-c2ccc(Cl)cc2)o1,12.5%
13,CC(C)Cn1c(N)c(C(=O)COC(=O)CCc2nc3ccccc3c(=O)[nH]2)c(=O)n(C)c1=O,-10.1%
14,Cl.O=C(CCN1CCCC1)Nc1ccc(Br)cc1,5.99%
15,CCN(c1ccccc1C(=O)O)S(=O)(=O)c1cccc2nsnc12,19.2%
16,OC(COc1ccc(C2C=CCC2)cc1)CN1CCCCC1 (stereo not shown),-5%
17,NC(=O)C1CC(=O)N(c2ccc(OCc3ccc(F)cc3)cc2)C1 (stereo not shown),12.9%
18,COc1ccc(S(=O)(=O)NCC2CCC(C(=O)NCc3cccnc3)CC2)cc1 (stereo not shown),4.66%
19,CCN(CC)CCN(C(=O)c1ccc(CN2CCCCC2)o1)C(C(=O)NC1CCCCC1)c1ccc(F)cc1 (stereo not shown),8.81%
20,C=CCN(C(=O)CNC(=O)c1ccco1)C(C(=O)NC1CCCCC1)c1ccc(F)cc1 (stereo not shown),10.4%
21,O=C(NNC(=S)Nc1ccc(Cl)cc1Cl)c1ccc(N2CCOCC2)c([N+](=O)[O-])c1,5.96%
22,COc1ccc(OC)c(NC(=O)c2oc3ccccc3c2NC(=O)C2CC2)c1,11.5%

row,SMILES,"hERG current change (%, negative = inhibition) at 1uM"
1,Cn1cc(CN2CCCC(C(=O)c3cc(F)ccc3F)C2)c2ccccc21 (stereo not shown),2.97%
2,CC(C)Cn1c(N)c(C(=O)COC(=O)c2c(F)cccc2F)c(=O)n(C)c1=O,5.57%
3,CCOc1cccc(CN2CCCC(C(=O)Nc3ccc(-c4ccn[nH]4)cc3)C2)c1O (stereo not shown),5.57%
4,CN(C)S(=O)(=O)n1cc(/C=C(\NC(=O)c2ccccc2)C(=O)N2CCCC2)c2ccccc21,16%
5,CCCNc1nc(-c2cc(C(=O)Nc3ccccc3)on2)cc(C(C)C)n1,16.2%
6,O=C(C(=O)N1CCc2ccccc2C1)c1cn(CC(=O)N2CCCC2)c2ccccc12,3.39%
7,O=C(O)c1ccc(SCc2cnc(Cl)s2)cc1,-79.6%
8,CCN(CC)CCCn1c2c(c(SCC(=O)Nc3nccs3)nc1=O)CCC2,7.84%
9,COc1ccc(Nc2ncnc3sc(-c4ccccc4)cc23)c(OC)c1,10.2%
10,Cn1c(=O)c2ncn(CC(=O)NC3CCCCCC3)c2n(C)c1=O,10.1%
11,CCn1c(O)c(C=Nc2ccccc2)sc1=O,4.82%
12,CCCCn1c(/N=C/c2ccc(N(C)C)cc2)nc2ccccc21,7.41%
13,CCOC(=O)COc1ncn(-c2ccccc2)n1,5.34%
14,O=C(COC(=O)c1cccc(F)c1)NC(=O)NC1CCCC1,12.2%
15,Cc1cc(O)cc(=O)n1Cc1ccco1,8.7%
16,CC(C)N(Cc1ccccc1)C(=O)CN1C(=O)NC2(CCCc3ccccc32)C1=O (stereo not shown),2.04%
17,CCOC(=O)c1c(NC(=O)CSc2nc3ccc(C)cc3[nH]2)sc2c1CC(C)(C)NC2(C)C,4.67%
18,COc1ccc(-c2noc(CCC(=O)NCCCN3CCN(c4ccccc4F)CC3)n2)cc1,-26.8%
19,COc1ccc(Nc2cc(C)nc(NCc3ccccc3)n2)cc1,11.5%
20,COc1ccc(NC(=O)CSCC(=O)N2CCN(C(=O)c3ccco3)CC2)cc1,6.41%
21,COc1ccccc1Nc1ncccc1C(=O)O,5.87%
22,CC1=NN(C(C#N)c2ccccc2C)C(C)(C)C1 (stereo not shown),5.75%
